Data as given in PubChem BioAssay AID1030 (National Center for Advancing Translational Sciences (NCATS), 2008).
In all, about 220,000 compounds went through this assay and about 16,000 (7.3%) were called active. Inconclusive means that the source gave no clear call. Such entries were picked first, then a sample of the others. The call rests on the fitted dose curve; in most records, active means well fitted inhibition curve with a large enough effect (not every such curve was filed as active); inconclusive means small, poorly fitted or top-dose-only effect, or another doubt; inactive means no such curve, though single readings can be large or run the other way. No potency is given beside an inconclusive call; the fits are too rough.

biological target: Aldehyde dehydrogenase 1A1 (Homo sapiens) (UniProt P00352); assay: qHTS Assay for Inhibitors of Aldehyde Dehydrogenase 1 (ALDH1A1); conditions: Purified ALDH1A1, NADH fluorescence, propionaldehyde substrate; series mostly up to 75.3 µM;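 on activity, negative = inhibition: plate controls were no enzyme wells and a reference inhibitor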
Potency means the concentration at half of the fitted maximal effect; tags describe the fitted curve by direction and shape.

Chain of UniProt P00352 (P00352 whole entry, looked up): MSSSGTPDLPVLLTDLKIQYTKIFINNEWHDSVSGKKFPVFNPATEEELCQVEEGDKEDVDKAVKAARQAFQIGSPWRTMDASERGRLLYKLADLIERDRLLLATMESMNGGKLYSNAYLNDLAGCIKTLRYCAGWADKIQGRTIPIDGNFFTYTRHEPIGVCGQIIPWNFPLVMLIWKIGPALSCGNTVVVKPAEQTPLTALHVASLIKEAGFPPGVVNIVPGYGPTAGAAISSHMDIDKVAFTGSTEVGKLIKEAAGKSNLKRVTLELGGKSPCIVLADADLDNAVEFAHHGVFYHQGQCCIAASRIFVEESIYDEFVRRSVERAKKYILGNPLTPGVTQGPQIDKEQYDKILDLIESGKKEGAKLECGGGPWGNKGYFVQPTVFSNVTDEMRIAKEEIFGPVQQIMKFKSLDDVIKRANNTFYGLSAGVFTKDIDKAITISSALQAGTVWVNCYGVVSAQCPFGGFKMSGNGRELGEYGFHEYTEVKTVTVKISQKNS

SMILES	Potency	activity, negative = inhibition
CCOC(=O)c1c(N)ssc1=S	active: 3.16 µM	–
CCCCC(CC)COCC1CO1 (configuration not stated)	active: 12.6 µM	–
CN(C)C(=O)CSc1nnc(-c2cc(-c3cccs3)nc3ccccc23)o1	inconclusive [inhibitor, partial curve]	–
Cc1c(O)c(=O)n(-c2ccccc2)n1C	inconclusive [inhibitor, partial curve, poor fit]	–
COc1cccc(/C=C/C(=O)OCC(=O)Nc2ccc(N3CCOCC3)cc2)c1OC	inconclusive [inhibitor, single point]	–
COc1cccc(C(C)NC(=O)Nc2cccc(C(F)(F)F)c2)c1 (configuration not stated)	inactive	–
COC(=O)COc1ccc(S(=O)(=O)NCCC2=CCCCC2)cc1Cl	inconclusive [inhibitor, partial curve]	–
COc1cc(NS(=O)(=O)c2ccc(NC(=S)NC(=O)COc3ccccc3OC)cc2)nc(OC)n1	inconclusive [inhibitor, single point]	–
S=C(Nc1ccc(Cl)c(Cl)c1)N1CCOCC1	inactive	–
COc1ccc(S(=O)(=O)NNC(=O)c2cc3cc4ccccc4nc3s2)cc1	inconclusive [inhibitor, partial curve]	–
Cc1ccc(S(=O)(=O)Nc2cc(Cl)c(O)cc2C)cc1	inconclusive [inhibitor, single point]	–
CCOC(=O)Cc1csc(NS(=O)(=O)c2ccc(C(F)(F)F)cc2)n1	inactive	–
Cc1ccc(-c2ccc(/C=N\NC(=O)C3C(=O)NCC3c3ccccc3)o2)cc1Cl (configuration not stated)	inconclusive [inhibitor, single point]	–
CCCN=C(N)/C(C(=O)OCC)=C(\O)c1ccc(OC)cc1	inconclusive [inhibitor, single point]	–
CC(C)NC(=O)C1(c2ccccc2)CCOCC1	inconclusive [inhibitor, partial curve]	–
CC(C)[C@H](O)C1=CCCCC1=O	inactive	–
Cn1cc(C(=O)c2ccc(Cl)cc2Cl)cc1C(=O)N/N=C(\N)COc1cccc(C(F)(F)F)c1	inactive	–
Cc1cc(C)c(S(=O)(=O)N2CCN=C2c2ccccc2)c(C)c1	inconclusive [inhibitor, single point]	–
Cc1onc(-c2ccccc2)c1C(=O)Nc1nnc(-c2ccncc2)s1	inconclusive [inhibitor, partial curve]	–
CCN=C1SC(C(=O)Nc2ccc(OC)cc2)CC(=O)N1CC (configuration not stated)	inconclusive [inhibitor, single point]	–
Clc1ccc(OCc2nc(-c3ccccn3)no2)c(Br)c1	inactive	–
Nc1c(C(=O)NCc2ccco2)sc2nc3c(cc12)C(=O)CCC3	inconclusive [inhibitor, single point]	–
COC(=O)c1ccc(N=NNc2ccccc2)cc1	inconclusive [inhibitor, single point]	–
COc1ccccc1/C=C/C(=O)Nc1ccc(N2CCOCC2)cc1	inactive	–
CCN=C(NCC)SC1CC(=O)N(c2ccc(OCC)cc2)C1=O (configuration not stated)	inactive	–
CCn1ncc(C2=NOC(C(=O)Nc3c(C)n(C)n(-c4ccccc4)c3=O)C2)c1C (configuration not stated)	inconclusive [inhibitor, single point]	–

SMILES	Potency	activity, negative = inhibition
O=C(CN1CCC(NC(=O)c2ccccc2F)CC1)NCc1ccc(F)cc1	inconclusive [inhibitor, single point]	–
CC1CCc2c(sc(Nc3nc4c(F)cccc4s3)c2C(N)=O)C1 (configuration not stated)	inconclusive [inhibitor, partial curve]	–
CCOC(=O)c1c(N)nn(C(=O)C(C)C)c1-c1ccc(OC)cc1	inconclusive [inhibitor, single point]	–
COc1cccc(NC(=O)CNC(=O)c2ccccc2)c1	inactive	–
CCCCOc1ccc(-c2cn3ccccc3n2)cc1[N+](=O)[O-]	active: 10 µM	–
COc1ccccc1OCC(=O)NCc1cccs1	inactive	–
O=C(c1cc(C(F)(F)F)cc(C(F)(F)F)c1)N1CCC2(CC1)CCN(c1ccncc1)CC2	inactive	–
O=C(c1ccc2c3c(cccc13)CC2)C1CCCN(C(=O)c2cccnc2)C1 (configuration not stated)	inconclusive [inhibitor, partial curve]	–
CCN(CC)CCN1C(=O)C(=O)/C(=C(/O)c2ccccc2)C1c1ccccc1F (configuration not stated)	inactive	–
Cc1ccc(C2C3=C(CC(C)(C)CC3=O)Nc3[nH]c(=S)[nH]c(=O)c32)cc1 (configuration not stated)	inactive	–
CCCSc1nsc(N)n1	active: 20 µM	–
CCN(CC)c1ccc(/C=N/N2CCN(Cc3ccc(C)cc3)CC2)c(O)c1	inconclusive [inhibitor, single point]	–
O=[N+]([O-])c1ccc(COc2cccc(CNc3ccc(F)cc3)c2)cc1	active: 14.1 µM	–
C=CCN=c1scc(C)n1/N=C/c1ccc(O)c(O)c1	active: 22.4 µM	–
S=C(Nc1ccc2nsnc2c1)N1CCCC1	active: 25.1 µM	–
CC1CN(Cc2nc3c(c(=O)n(C)c(=O)n3C)n2CC(=O)c2ccccc2)CC(C)O1 (configuration not stated)	inconclusive [inhibitor, single point]	–
Cc1cc(NS(=O)(=O)c2ccc(NC(=O)CN3C(=O)c4ccccc4C3=O)cc2)nc(C)n1	inactive	–
Cc1ccc(SCCNC(=O)c2ccc(C)c(S(=O)(=O)Nc3ccccc3C)c2)cc1	inactive	–
COc1ccc(NC(=O)CC2(CC(=O)O)CCCC2)cn1	inconclusive [inhibitor, partial curve]	–
Cc1ccc(C(=O)Nc2ccc3c(c2)OCO3)cc1S(=O)(=O)N1CCCC1	inconclusive [inhibitor, single point]	–
CC(c1ccccc1)C1CC(=O)N(C2CCCCC2)C1=O (configuration not stated)	inconclusive [inhibitor, single point]	–
O=C(Cc1ccc(-n2cccc2)cc1)NCc1ccccc1Cl	inactive	–
Cc1nnc(-c2cnn(-c3ccccc3)c2N)n1Cc1ccncc1	inactive	–
CC(C)(C)NC(=O)C(c1cccnc1)N(C(=O)c1ccc(Cl)nc1)C1CCCC1 (configuration not stated)	active: 5.62 µM	–
CCOC(=O)c1ccc(NC(=O)CN2C(=O)C(CC)SC(CC)C2=O)cc1 (configuration not stated)	inconclusive [inhibitor, single point]	–
COc1ccc(CN2CCC(C(=O)N3CCCC(C)C3)CC2)cc1OC (configuration not stated)	inconclusive [inhibitor, partial curve, poor fit]	–

SMILES	Potency	activity, negative = inhibition
Cc1cc(C)c2ccc(C)[n+]([O-])c2c1O	inconclusive [inhibitor, single point]	–
O=C(O)/C=C/C(=O)Nc1ccc2c(c1)NC(=O)CO2	active: 22.4 µM	–
CCOC(=O)c1nn(-c2cccc(OC)c2)c2nc(CC)c(C#N)c(=O)n12	inconclusive [inhibitor, single point]	–
Cc1ccc(-c2cc(C(F)F)n3ncc(C(=O)Nc4ccc(S(=O)(=O)Nc5ccccc5C)cc4)c3n2)cc1	inconclusive [inhibitor, single point]	–
CC(C1CC1)N(Cc1ccccc1)C(=S)Nc1cccc(C(F)(F)F)c1 (configuration not stated)	inconclusive [inhibitor, full curve, poor fit]	–
CCN(NC(=O)C(O)(c1ccccc1)c1ccccc1)C(=O)c1ccccc1	inconclusive [inhibitor, single point]	–
O=S(=O)(Nc1ccc2cn[nH]c2c1)c1ccc(Cl)s1	inactive	–
CCN(C(=O)Cn1cnc2cc([N+](=O)[O-])ccc2c1=O)C1CCS(=O)(=O)C1 (configuration not stated)	inactive	–
O=C(O)c1ccccc1S	inactive	–
CCc1ccc(C(=O)NNc2cc(Cl)cc(Cl)c2)cc1	inconclusive [inhibitor, single point]	–
CCn1cc(C(=O)Nc2ccc(F)c(F)c2)cn1	inactive	–
N#Cc1ccc(C23CC4(C2)[C@H](CN(Cc2cccnc2)[C@@H]4c2ccccc2)C3c2ccccc2)cc1 (some centres not stated)	inconclusive [inhibitor, single point]	–
COc1ccccc1-c1cc(-c2ccccc2)nc(SC(C(N)=O)c2ccccc2)c1C#N (configuration not stated)	inconclusive [inhibitor, partial curve]	–
CCN1C(=C(C#N)C#N)C=Cc2cc(C)ccc21	inactive	–
COC(=O)C1=C(C(=O)OC)[C@@H]2N(C)c3ccc(OC)cc3[C@@]23C[C@@H](C(=O)OC)N(C(=O)COCc2ccccc2)C3=N1	–	inactive: 10.4% [at 13.5 µM]
C1CCc2nnnn2CC1	inactive	–
Cc1csc(C(C#N)C(=O)c2ccc(S(=O)(=O)N3CCCC3)cc2)n1 (configuration not stated)	inconclusive [inhibitor, single point]	–
CCCOc1ccc(C(=O)NCC(C)(C)N2CCOCC2)cc1	inactive	–
O=C(COC(=O)Cn1cnc2ccccc21)Nc1cccc([N+](=O)[O-])c1	inconclusive [inhibitor, full curve, poor fit]	–
COC(=O)N1CCC[C@@]2(CCN(c3ccccc3)C2)C1	inactive	–
O=C(NCc1ccc(Cl)cc1)c1noc2c1CCCCC2	inconclusive [inhibitor, single point]	–
O=C(O)/C(=C\c1ccco1)NC(=O)c1cccc2ccccc12	inactive	–
Cn1cnnc1SC1CCCCC1NS(=O)(=O)c1ccccc1 (configuration not stated)	active: 7.94 µM	–
CCN(CC)S(=O)(=O)c1cc([N+](=O)[O-])ccc1NNC(=O)Nc1ccc(F)cc1	inconclusive [inhibitor, single point]	–
Cc1ccc(S(=O)(=O)NCC(c2ccco2)N2CCOCC2)cc1 (configuration not stated)	inconclusive [inhibitor, single point]	–
